Results: publication PMC6919601, “Identification of Plasmodium dipeptidyl aminopeptidase allosteric inhibitors by high throughput screening” (PLoS ONE, 2019)
In all, about 110,000 compounds went through this assay and about 230 (0.21%) showed an effect of 50% or more. The list shows a part of the results.

These molecules were tested against DPAP1 (Plasmodium falciparum, UniProt Q8IIJ9) (assay: primary screen, percent inhibition; read by cleavage of a fluorogenic dipeptide substrate; higher = more effect of the substance).
Design: species or system P. falciparum D10 trophozoite lysates; single well
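Also: 30 min substrate incubation versus DMSO and 10 µM JCP410 controls.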

Chain of DPAP1 (Q8IIJ9 whole entry, looked up): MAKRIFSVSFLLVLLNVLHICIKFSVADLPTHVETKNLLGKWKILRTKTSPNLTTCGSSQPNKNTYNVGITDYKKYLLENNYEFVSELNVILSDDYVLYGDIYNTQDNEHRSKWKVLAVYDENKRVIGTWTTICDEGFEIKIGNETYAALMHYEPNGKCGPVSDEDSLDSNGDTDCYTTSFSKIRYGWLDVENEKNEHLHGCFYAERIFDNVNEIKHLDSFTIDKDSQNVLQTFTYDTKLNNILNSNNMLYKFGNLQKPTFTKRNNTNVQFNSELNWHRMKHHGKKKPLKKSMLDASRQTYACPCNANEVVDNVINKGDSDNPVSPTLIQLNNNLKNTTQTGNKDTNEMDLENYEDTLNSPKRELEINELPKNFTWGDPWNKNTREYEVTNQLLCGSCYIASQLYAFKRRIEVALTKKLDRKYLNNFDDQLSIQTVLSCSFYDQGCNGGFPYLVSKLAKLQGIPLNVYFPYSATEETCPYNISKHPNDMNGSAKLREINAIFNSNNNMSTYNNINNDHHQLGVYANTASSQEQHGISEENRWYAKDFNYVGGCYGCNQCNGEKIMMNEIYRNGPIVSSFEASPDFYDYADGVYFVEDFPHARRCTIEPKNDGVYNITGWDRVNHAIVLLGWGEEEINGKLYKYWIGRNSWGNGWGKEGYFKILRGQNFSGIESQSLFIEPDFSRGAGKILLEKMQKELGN

SMILES | % Inhibition @ 10 uM
CCC(O)c1nc2ccccc2n1CCOc1cc(C)ccc1C (stereo not drawn) | 2.05%
Cc1nn(CC(=O)NC(C)c2ccccc2)c(C)c1Cl (stereo not drawn) | -2.79%
Cc1sc(-c2cc3ccc(O)cc3oc2=O)nc1-c1ccc(Cl)cc1 | -3.83%
CC(CNS(=O)(=O)c1ccc(-c2cc(C(F)(F)F)no2)s1)c1ccccc1 (stereo not drawn) | 3.9%
Cc1ccc(S(=O)(=O)NC2c3cccc4cccc(c34)C2Sc2nnc(N)s2)cc1 (stereo not drawn) | 3.59%
COc1ccc(CNC(=O)NCc2noc3ccc(C)cc23)cc1 | -2.84%
CCOC(=O)C1=C(C)N=c2s/c(=C\c3ccc(OC)cc3OC)c(=O)n2C1c1ccc(N(C)C)cc1 (stereo not drawn) | -3.44%
Cc1nc2sccn2c(=O)c1S(=O)(=O)N1CC(=O)N(CCc2ccccc2)C(=O)C1 | -1.97%
CCCN(Cc1cc(Cl)ccc1[N+](=O)[O-])CC1CC1 | 1.08%
Cc1ccc(-c2nnc3n2C2(CCCC2)Cc2ccccc2-3)cc1 | -9.42%
O=C1NCCc2c1[nH]c1ccc(OCc3ccccc3)cc21 | -1.91%
CC(NC(=O)c1ccccc1)c1cc2c(cc1Br)OCCO2 (stereo not drawn) | -5.34%
COc1ccc(C(=O)/C=C2\NC(=O)NC2=O)cc1 | -0.053%
CC1=C(C#N)C(NC(=O)CCc2ccccc2)(C(F)(F)F)C(=O)N1 (stereo not drawn) | 0.00626%
N#CC1=C(SCC(N)=O)NC(=O)CC1c1ccccc1Cl (stereo not drawn) | 17%
N#CC1=C(N)OC2=C(C(=O)CCC2)C1c1ccsc1 (stereo not drawn) | -4.68%
COc1ccc(S(=O)(=O)N(CC(=O)Nc2ccc(Cl)cc2)c2ccccc2)cc1 | 0.00477%
O=C(NCC1CCCO1)Nc1cccc2ccccc12 (stereo not drawn) | 2.64%
C=CCOc1ccc(CNc2ccc(N3CCOCC3)c(Cl)c2)cc1 | -3.23%
CC(=O)c1ccc(NC(=O)Cn2c(-c3cncs3)nc3ccccc32)cc1 | -4.12%
O=S(=O)(c1ccc2[nH]c3c(c2c1)CCCC3)N1CCN(Cc2ccccc2)CC1 | -8.25%
O=C(Cn1ccc2cc(S(=O)(=O)N3CCCC3)ccc21)NCc1ccccc1F | 4.96%
COc1ccc(C(=O)NCC2(c3ccc(OC)c(OC)c3)CCCC2)cc1 | -3.76%
CSC[n+]1cc(C(=O)c2ccccc2)ccc1N | -0.99%
CCc1ccc(Oc2nc3c(C)cccn3c(=O)c2/C=C(\C#N)C(=O)NC2CCCCC2)cc1 | -1.43%
Cc1cccc(C(=O)Nc2ccc(-c3cn4ccsc4n3)cc2)c1 | -0.366%
O=C(CCc1cc(Cl)no1)N1CCC(c2c[nH]c3ccccc23)(c2c[nH]c3ccccc23)CC1 | -0.637%
